Measured values from the GPR68 mutational scans of Howard et al. (2025).
The least precise scores are not listed. Two further conditions of the source, in which the scores hardly spread, are not listed. Read del as a deletion of the residues named and ins as an insertion between two positions. For some of these results: The data file names ogerin without a concentration.

B1: GPR68, Q15743 (parent)
chain: MGNITADNSSMSCTIDHTIHQTLAPVVYVTVLVVGFPANCLSLYFGYLQIKARNELGVYLCNLTVADLFYICSLPFWLQYVLQHDNWSHGDLSCQVCGILLYENIYISVGFLCCISVDRYLAVAHPFRFHQFRTLKAAVGVSVVIWAKELLTSIYFLMHEEVIEDENQHRVCFEHYPIQAWQRAINYYRFLVGFLFPICLLLASYQGILRAVRRSHGTQKSRKDQIQRLVLSTVVIFLACFLPYHVLLLVRSVWEASCDFAKGVFNAYHFSLLLTSFNCVADPVLYCFVSETTHRDLARLRGACLAFLTCSRTGRAREAYPLGAPEASGKSGAQGEEPELLTKLHPAFQTPNSPGSGGFPTGRLA

Assays:
[1] = variants of: B1; experiment: cAMP reporter score (Enrich2 score, wild type = 0); higher = more signal; HEK293T, FACS bins
[2] = variants of: B1; experiment: surface expression score (Enrich2 score, wild type = 0); higher = more signal; HEK293T, FACS bins

Variant | cAMP reporter score ([1]; pH 5.5) | cAMP reporter score ([1]; pH 6) | cAMP reporter score ([1]; pH 6, modulator: ogerin) | cAMP reporter score ([1]; pH 6.5, modulator: ogerin) | surface expression score [2]
R299_L300insGSG | -0.995 | -0.694 | -1.17 | -1.28 | -0.264
R301A | -0.791 | -0.469 | -0.721 | -0.583 | -1.09
R301C | -0.828 | 0.279 | -0.636 | -0.413 | -0.526
R301D | -0.348 | -0.428 | -1.12 | -0.656 | -0.935
R301E | 0.121 | -0.038 | – | -0.781 | -1.15
R301F | 0.839 | 0.193 | 0.024 | 0.893 | 0.446
R301G | 0.306 | -0.7 | 0.641 | 0.89 | -0.165
R301H | 0.236 | – | 0.26 | -0.44 | -0.471
R301I | 0.519 | 0.217 | 0.201 | -0.514 | –
R301K | 1.04 | – | 1.26 | – | 0.205
R301L | 1.18 | – | 0.409 | -0.248 | -0.326
R301M | 0.038 | -0.009 | -0.076 | 0.028 | -0.406
R301N | -0.577 | -0.997 | -1.49 | – | -1.26
R301P | 1.03 | 0.019 | 0.911 | 0.476 | 0.437
R301Q | -0.047 | -0.708 | 0.652 | -0.378 | -1.06
R301S | -0.71 | 0.302 | -0.451 | 0.092 | 0.108
R301T | 0.095 | -0.491 | 0.848 | 0.09 | –
R301V | 0.626 | -0.82 | 0.425 | -0.078 | -0.18
R301W | 0.137 | -0.267 | 0.219 | 0.764 | 0.198
R301Y | 1.21 | 0.717 | 0.804 | 1.17 | 0.37
R301_G302del | -0.648 | -0.758 | -0.908 | -0.554 | –

Variant | cAMP reporter score ([1]; pH 5.5) | cAMP reporter score ([1]; pH 6) | cAMP reporter score ([1]; pH 6, modulator: ogerin) | cAMP reporter score ([1]; pH 6.5, modulator: ogerin) | surface expression score [2]
R301del | 0.34 | -0.4 | -0.219 | -1.24 | -1.25
A303C | 0.472 | 0 | -0.177 | 0.382 | 0.411
A303D | 0.278 | 2.54 | 0.486 | 2.46 | -0.766
A303E | 0.333 | 1.14 | 0.398 | -0.014 | -0.166
A303F | 0.003 | -1.11 | 0.499 | -0.143 | -0.232
A303G | 0.029 | -0.546 | -0.089 | -0.746 | 0.508
A303H | -0.075 | 0.143 | -0.201 | -0.498 | -0.448
A303I | 0.639 | -0.189 | 0.716 | -0.29 | -0.393
A303K | 0.093 | -0.581 | 0.134 | 0.435 | -0.386
A303L | -0.355 | -0.953 | -0.524 | -0.44 | -0.557
A303M | -0.381 | 0.225 | 1.2 | 0.724 | 0.752
A303N | -0.043 | 1.04 | 0.366 | -0.036 | -0.073
A303P | 0.758 | -0.127 | 0.788 | 1 | 1.21
A303Q | 0.504 | 0.605 | 1.09 | 0.891 | 1.08
A303R | 1.24 | 1.15 | 1.46 | 1.52 | 0.648
A303S | 0.132 | 0.314 | 0.159 | 0.471 | -0.059
A303T | -0.555 | -0.614 | -0.402 | -0.842 | -1.06
A303V | -0.343 | – | 0.621 | 1.1 | 0.149
A303W | 1.09 | 2.94 | 0.669 | 0.799 | 1.1
A303Y | 0.26 | 0.238 | 0.584 | 0.138 | 0.662
C304_L305insGS | -0.53 | -0.458 | -0.624 | -0.596 | -0.425

Variant | cAMP reporter score ([1]; pH 5.5) | cAMP reporter score ([1]; pH 6) | cAMP reporter score ([1]; pH 6, modulator: ogerin) | cAMP reporter score ([1]; pH 6.5, modulator: ogerin) | surface expression score [2]
L305_A306insGS | 0.468 | 0.132 | 0.47 | 0.197 | 0.431
A306C | -0.028 | -0.144 | -0.368 | -0.833 | -0.413
A306D | 0.849 | – | 1.39 | 2.57 | 1.15
A306E | 1.14 | 0.727 | 0.735 | 0.851 | 1.16
A306F | 0.655 | -1.16 | 0.249 | -0.362 | -0.318
A306G | 0.914 | 0.49 | 0.578 | 0.232 | 0.774
A306H | 1.02 | – | 0.723 | 0.375 | 1.28
A306I | 0.215 | -0.871 | -0.119 | -0.119 | –
A306K | 0.96 | 0.611 | 0.754 | 1.35 | 0.951
A306L | -0.313 | -0.531 | -0.172 | -0.052 | -1.07
A306M | 0.315 | – | 0.448 | – | -0.456
A306N | 0.11 | 0.406 | -0.076 | -0.003 | 0.117
A306P | 0.221 | 0.38 | 0.402 | -0.211 | -0.009
A306Q | 1.03 | -0.828 | 0.562 | 0.093 | 0.571
A306R | -1.59 | -1.26 | -0.894 | -0.626 | -0.573
A306S | 1.02 | 1.68 | 2.6 | 1.48 | -0.275
A306T | 0.816 | – | -0.024 | -0.199 | 0.201
A306V | 0.072 | -1.76 | 0.459 | -0.676 | -1.13
A306W | -1.22 | -0.29 | -0.379 | 0.253 | -1.08
A306Y | 1.25 | 0.264 | 0.873 | -1.08 | –
F307A | 0.119 | -0.068 | 0.752 | -0.034 | 0.165
